# In PubChem BioAssay (Tox21):
# “And” between values parts separate entries of the source, which are not always exact repeats. Identical values can stand only once. The inconclusive results got no clear call from the source; some entries with a clear call stand among them for comparison. For part of these data: Potencies of inconclusive entries are doubtful fits and often do not repeat. A structure can be active in one record and inactive in another. The source made the active and inactive calls. Unless noted, calls come from the whole dose curve.
# How the values were obtained:
# [1] = qHTS assay to identify small molecule antagonists of the sonic hedgehog signaling (Shh) pathway (AID 1259369); note: nearly all actives have a fitted effect of over 45% in size; for activity change, negative = inhibition: % is set by controls: 0 for no effect and ±100 for the full control effect
# How it was run: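 Inhibition of Shh signalling is measured as reduced Gli1-response-element firefly luciferase output in an NIH/3T3-derived stable reporter clone stimulated with conditioned medium for 24hr.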
# [2] = target: Estrogen receptor beta (Homo sapiens) (UniProt Q92731); experiment: qHTS assay to identify small molecule antagonists of the estrogen receptor beta (ER-beta) signaling pathway (AID 1259378; active = well fitted inhibition curve with a large enough effect in the signal ratio in the repeat runs, not every such curve was filed as active; inconclusive = weak or mixed curves, or effect the other way; inactive = no such curve, though single readings can be large or run the other way; the % refers to the signal ratio; for activity, negative = inhibition: % is set by controls: 0 for no effect and ±100 for the full control effect); conditions: ER-beta-UAS-bla HEK293T, beta-lactamase FRET ratio, 16 h; activity, negative = inhibition: at 92.4 µM (top of the series) unless noted
# UniProt Q92731, sequence (Q92731 whole entry, looked up): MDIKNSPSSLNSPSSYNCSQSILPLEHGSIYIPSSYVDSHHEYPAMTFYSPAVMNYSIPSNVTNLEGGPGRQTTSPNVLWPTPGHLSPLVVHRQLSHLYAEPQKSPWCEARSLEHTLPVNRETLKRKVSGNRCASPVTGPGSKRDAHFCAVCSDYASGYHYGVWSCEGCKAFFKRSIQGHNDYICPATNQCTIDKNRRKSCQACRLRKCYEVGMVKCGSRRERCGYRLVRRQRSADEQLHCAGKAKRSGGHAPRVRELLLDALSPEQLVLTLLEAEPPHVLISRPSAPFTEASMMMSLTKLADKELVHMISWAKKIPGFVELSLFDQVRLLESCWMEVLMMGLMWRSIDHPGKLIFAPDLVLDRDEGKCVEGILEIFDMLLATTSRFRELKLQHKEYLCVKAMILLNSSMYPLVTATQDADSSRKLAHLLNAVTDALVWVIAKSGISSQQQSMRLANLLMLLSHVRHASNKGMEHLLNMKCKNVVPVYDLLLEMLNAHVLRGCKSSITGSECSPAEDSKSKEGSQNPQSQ
# How it was run: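 ER-beta-UAS-bla HEK293T cells in 2% charcoal-stripped FBS medium treated with compound plus 1nM final 17-beta-estradiol for 16 hr at 37C. Beta-lactamase reporter read by FRET substrate fluorescence after 2 hours at room temperature.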
# [3] = qHTS assay to identify small molecule agonists of the androgen receptor (AR) signaling pathway in the presence of an antagonist - cell viability counter screen (AID 1259379; active = well fitted curve in the direction sought with a large enough effect in the repeat runs; inconclusive = weak or mixed curves; inactive = no such curve, though single readings can be large; an effect the other way counts as inactive or inconclusive; note: nearly all actives have a fitted effect of over 25% in size)
# How it was run: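 Fluorescence from CellTiter-Fluor, added after 15 hr and read 1 hr later, gave cell viability. Cells were MDA-kb2 exposed to compounds (15 concentrations) in the presence of 3.0uM nilutamide at 37C, 0% CO2.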
# [4] = qHTS assay to identify small molecule agonists of the estrogen receptor beta (ER-beta) signaling pathway - cell viability counter screen (AID 1259380; active = well fitted curve in the direction sought with a large enough effect in the repeat runs; inconclusive = weak or mixed curves; inactive = no such curve, though single readings can be large; an effect the other way counts as inactive or inconclusive; note: nearly all actives have a fitted effect of over 30% in size)
# How it was run: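 Same-well viability counter screen. Cells: ER-beta-UAS-bla HEK293T, plated 6 hr before compound, in 2% charcoal-stripped FBS. Compound exposure 16 hr, 37C; viability by CellTiter-Glo luminescence after 30 min at room temperature.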
# [5] = qHTS assay to identify small molecule antagonists of the estrogen receptor beta (ER-beta) signaling pathway - cell viability counter screen (AID 1259382; active = well fitted curve in the direction sought with a large enough effect in the repeat runs; inconclusive = weak or mixed curves; inactive = no such curve, though single readings can be large; an effect the other way counts as inactive or inconclusive; note: nearly all actives have a fitted effect of over 55% in size)
# How it was run: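 Following a 6 hr plating period, HEK293T cells carrying a UAS-driven beta-lactamase reporter under ER-beta control received compounds and 1nM E2 (final). After 16 hr at 37C and 2 hr substrate loading, CellTiter-Glo luminescence indicated viability.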
# [6] = qHTS assay to identify small molecule agonists of the estrogen receptor alpha (ER-alpha) signaling pathway in the presence of an antagonist - cell viability counter screen (AID 1259386; active = well fitted curve in the direction sought with a large enough effect in the repeat runs; inconclusive = weak or mixed curves; inactive = no such curve, though single readings can be large; an effect the other way counts as inactive or inconclusive;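 note: cells exposed to compounds for 22 h at 37 °C before the viability read; nearly all actives have a fitted effect of over 30% in size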)
# How it was run: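 Cells are starved of estrogens for 5 days in charcoal-stripped serum, seeded for 24hr and co-treated with ICI-182,780 (10.0nM final) and test compounds. After 22hr at 37C, viability is read as CellTiter-Fluor fluorescence.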
# [7] = target: Progesterone receptor (Homo sapiens) (UniProt P06401); experiment: qHTS assay to identify small molecule agonists of the progesterone receptor (PR) signaling pathway (AID 1346784); conditions: PR-UAS-bla HEK293T, beta-lactamase FRET ratio, 16 h; activation: at 92.4 µM (top of the series) unless noted; note: nearly all actives have a fitted effect of over 30% in size; for activation: % is set by controls: 0 for no effect and ±100 for the full control effect
# UniProt P06401, sequence (P06401 whole entry, looked up): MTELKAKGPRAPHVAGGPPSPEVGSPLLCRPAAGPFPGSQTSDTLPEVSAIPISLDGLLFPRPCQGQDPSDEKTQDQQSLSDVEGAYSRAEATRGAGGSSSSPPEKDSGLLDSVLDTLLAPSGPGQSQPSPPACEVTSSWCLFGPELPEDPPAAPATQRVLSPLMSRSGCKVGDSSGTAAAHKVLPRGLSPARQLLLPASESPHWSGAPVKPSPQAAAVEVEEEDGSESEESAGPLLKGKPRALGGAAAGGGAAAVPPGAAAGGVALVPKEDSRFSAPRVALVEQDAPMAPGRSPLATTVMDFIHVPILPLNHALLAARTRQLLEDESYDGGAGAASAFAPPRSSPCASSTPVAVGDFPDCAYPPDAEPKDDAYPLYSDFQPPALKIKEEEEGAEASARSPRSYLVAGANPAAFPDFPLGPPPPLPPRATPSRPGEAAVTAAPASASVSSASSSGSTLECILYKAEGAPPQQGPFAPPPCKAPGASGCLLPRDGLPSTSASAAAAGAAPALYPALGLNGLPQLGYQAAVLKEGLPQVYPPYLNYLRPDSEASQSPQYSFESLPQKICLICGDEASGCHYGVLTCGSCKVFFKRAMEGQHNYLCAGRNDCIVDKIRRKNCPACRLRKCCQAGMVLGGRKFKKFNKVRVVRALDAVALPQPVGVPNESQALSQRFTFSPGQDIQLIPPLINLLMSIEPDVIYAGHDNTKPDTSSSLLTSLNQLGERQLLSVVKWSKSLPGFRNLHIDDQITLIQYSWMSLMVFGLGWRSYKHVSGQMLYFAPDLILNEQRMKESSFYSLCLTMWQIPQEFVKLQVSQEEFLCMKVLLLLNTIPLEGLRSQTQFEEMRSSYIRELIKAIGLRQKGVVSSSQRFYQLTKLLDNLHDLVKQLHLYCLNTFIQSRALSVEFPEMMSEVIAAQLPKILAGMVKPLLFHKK
# How it was run: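 Beta-lactamase reporter read-out: after 16 hr compound treatment at 37C and a further 2 hr at room temperature with LiveBLAzer B/G FRET substrate, fluorescence was measured in PR-UAS-bla HEK 293T cells grown in 2% charcoal-stripped serum.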
# [8] = target: Thyrotropin receptor (Homo sapiens) (UniProt P16473); experiment: qHTS assay to identify small molecule antagonists of the thyroid stimulating hormone receptor (TSHR) signaling pathway (AID 1259385); conditions: TSHR-HEK293 cAMP HTRF, TSH-stimulated antagonist mode; activity change, negative = inhibition: at 92.4 µM (top of the series) unless noted; note: nearly all actives have a fitted effect of over 20% in size; for activity change, negative = inhibition: % is set by controls: 0 for no effect and ±100 for the full control effect
# UniProt P16473, sequence (P16473 whole entry, looked up): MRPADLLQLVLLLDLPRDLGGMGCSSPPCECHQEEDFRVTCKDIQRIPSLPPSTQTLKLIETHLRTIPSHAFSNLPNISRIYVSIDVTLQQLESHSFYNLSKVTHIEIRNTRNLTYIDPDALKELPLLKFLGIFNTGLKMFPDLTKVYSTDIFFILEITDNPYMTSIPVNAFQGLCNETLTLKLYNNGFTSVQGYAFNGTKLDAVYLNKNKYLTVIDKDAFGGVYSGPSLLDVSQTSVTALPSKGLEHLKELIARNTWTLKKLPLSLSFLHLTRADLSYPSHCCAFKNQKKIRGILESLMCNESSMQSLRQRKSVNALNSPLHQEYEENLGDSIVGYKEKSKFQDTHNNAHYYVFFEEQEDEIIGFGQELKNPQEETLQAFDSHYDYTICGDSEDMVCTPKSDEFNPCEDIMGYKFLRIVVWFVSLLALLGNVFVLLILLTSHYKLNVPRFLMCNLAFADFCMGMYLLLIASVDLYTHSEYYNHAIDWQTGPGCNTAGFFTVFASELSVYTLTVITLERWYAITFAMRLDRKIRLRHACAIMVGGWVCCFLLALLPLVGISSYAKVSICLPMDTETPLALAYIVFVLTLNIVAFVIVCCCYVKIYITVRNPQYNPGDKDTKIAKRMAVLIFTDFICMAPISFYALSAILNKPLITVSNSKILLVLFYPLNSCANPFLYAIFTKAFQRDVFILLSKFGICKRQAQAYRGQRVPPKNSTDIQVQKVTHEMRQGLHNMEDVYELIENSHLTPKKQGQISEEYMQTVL
# How it was run: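 TSHR-HEK293 cells (800/well) plated 18 h, then compounds with Ro20-1724 and TSH at 1.5 ng/mL final, 30 min at room temperature. cAMP quantified by HTRF (cAMP-d2/anti-cAMP-cryptate, 1 h); 15 concentrations in triplicate.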
# [9] = qHTS assay to identify small molecule antagonists of the progesterone receptor (PR) signaling pathway - cell viability counter screen (AID 1346798; active = well fitted curve in the direction sought with a large enough effect in the repeat runs; inconclusive = weak or mixed curves; inactive = no such curve, though single readings can be large; an effect the other way counts as inactive or inconclusive; note: nearly all actives have a fitted effect of over 50% in size)
# How it was run: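 HEK293T PR-UAS-bla, 2% charcoal-stripped FBS; 4 hr pre-plate; cpd + R5020, 16 h 37C; LiveBLAzer read first; then CellTiter-Glo 30 min RT, luminescence.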
# [10] = qHTS assay to identify small molecule agonists of the progesterone receptor (PR) signaling pathway - cell viability counter screen (AID 1346799); note: nearly all actives have a fitted effect of over 45% in size
# How it was run: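 Luminescence from CellTiter-Glo, added after the beta-lactamase FRET read in the same wells, gave cytotoxicity in PR-UAS-bla HEK293T cells treated with compounds for 16 hr at 37C.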
# [11] = target: Progesterone receptor (Homo sapiens) (UniProt P06401); experiment: qHTS assay to identify small molecule antagonists of the progesterone receptor (PR) signaling pathway (AID 1346795; active = well fitted inhibition curve with a large enough effect in the signal ratio in the repeat runs, not every such curve was filed as active; inconclusive = weak or mixed curves; the % refers to the signal ratio); conditions: PR-UAS-bla HEK293T, beta-lactamase FRET ratio, 16 h; activity change, negative = inhibition: at 92.4 µM (top of the series) unless noted
# How it was run: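 Read-out is fluorescence from the LiveBLAzer B/G FRET substrate, cleaved by a UAS-controlled beta-lactamase in PR-UAS-bla HEK293T cells after 16 hr exposure to compound plus 1 nM promegestone (final), followed by 2 hr at room temperature.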
# [12] = qHTS assay to identify small molecule agonists of the TGF-beta/Smad signaling pathway - cell viability counter screen (AID 1346829; active = well fitted curve in the direction sought with a large enough effect in the repeat runs; inconclusive = weak or mixed curves; inactive = no such curve, though single readings can be large; an effect the other way counts as inactive or inconclusive; note: nearly all actives have a fitted effect of over 45% in size)
# How it was run: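 HEK 293T SBE-bla line, 5 hr compound exposure at 37 C, multiplexed CellTiter-Glo viability read by luminescence.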
# [13] = qHTS assay to identify small molecule agonists of the TGF-beta/Smad signaling pathway (AID 1346859; active = well fitted activation curve with a large enough effect in the signal ratio in the repeat runs, not every such curve was filed as active; inconclusive = weak or mixed curves; the % refers to the signal ratio); conditions: SBE-bla HEK293T, TGF-beta/Smad beta-lactamase reporter, 5 h; activation: at 76.8 µM (top of the series)
# How it was run: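 SBE-bla HEK 293T, 4,000 cells/well, plated o/n; cpd in DMSO, 5 hr, 37 C/5% CO2; B/G FRET substrate 2 hr RT; ex 405, em 460/530 nm.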
# Potency is the fitted concentration of half-maximal effect; tags give direction and shape of the fitted curve or compound fluorescence and quenching.
smiles,measurement,setting,value
CC1=CC(=C(c2ccc(N)cc2)c2ccc(N)cc2)C=CC1=N,"activity change, negative = inhibition",[1],inactive: -22.7% [at 8.39 µM]
same,"activity, negative = inhibition",[2],inconclusive: -35.2% [at 8.39 µM]
same,Potency,[3],active: 3.1 µM
same,Potency,[4],"inconclusive: 3.47 µM [cytotoxic, single point]"
same,Potency,[5],"inconclusive: 2.19 µM [cytotoxic, partial curve, poor fit]"
same,Potency,[6],"inconclusive: 3.1 µM [cytotoxic, partial curve]"
same,Potency,[7],active: 0.39 µM
CC(C)CC(=O)C1C(=O)c2ccccc2C1=O,Potency,[1],active: 61.1 µM
same,Potency,[2],"inconclusive: 38.6 µM [inhibitor, partial curve]"
same,Potency,[4],"inconclusive: 7.7 µM [cytotoxic, full curve]"
same,Potency,[8],"inconclusive: 68.6 µM [falling, single point]"
same,Potency,[6],"inconclusive: 48.6 µM [cytotoxic, partial curve]"
same,Potency,[9],"inconclusive: 54.5 µM [rising, partial curve, poor fit]"
same,Potency,[10],"inconclusive: 77 µM [rising, single point]"
O=C(N[C@@H](Cc1ccccc1)[C@@H](O)C(=O)N1C[C@@H](O)[C@@H](O)C1)c1cc2cc(Cl)ccc2[nH]1,Potency,[1],inactive
same,"activity, negative = inhibition",[2],inconclusive: -48.2%
same,Potency,[4],"inconclusive: 68.6 µM [cytotoxic, single point]"
same,Potency,[11],"inconclusive: 61.1 µM [falling, partial curve]"
COc1cc2c(cc1OC)[C@@H]1CC(=O)[C@@H](CC(C)C)CN1CC2,Potency,[1],"inconclusive: 3.35 µM [inhibitor, full curve, poor fit]"
same,"activity, negative = inhibition",[2],inconclusive: 0.452% [at 42.5 µM]
same,Potency,[8],inactive
same,Potency,[9],inactive
C=C(C)C(=O)OCCOCC,Potency,[1],"inconclusive: 0.773 µM [inhibitor, partial curve, poor fit]"
same,"activity, negative = inhibition",[2],inconclusive: -29.5%
same,Potency,[4],"inconclusive: 68.9 µM [cytotoxic, partial curve]"
same,Potency,[8],inactive
same,Potency,[6],"inconclusive: 68.9 µM [cytotoxic, single point]"
same,Potency,[7],inactive
same,Potency,[9],inactive
CC(C)=NNC(N)=S,Potency,[1],active: 13.7 µM
same,Potency,[2],"inconclusive: 30.6 µM [rising, partial curve]"
same,Potency,[4],"inconclusive: 30.6 µM [cytotoxic, partial curve]"
same,activation,[7],inconclusive: -9.82%
same,Potency,[11],inconclusive: 21.7 µM
same,Potency,[9],active: 21.7 µM
same,Potency,[10],"inconclusive: 13.7 µM [cytotoxic, partial curve]"
CCCCC(CC)C(=O)OCCOCCOCCOCCOC(=O)C(CC)CCCC (configuration not stated),Potency,[1],inactive
same,Potency,[2],inactive
same,Potency,[4],"inconclusive: 21.7 µM [cytotoxic, single point]"
same,Potency,[8],"inconclusive: 61.1 µM [falling, partial curve]"
same,Potency,[12],"inconclusive: 49 µM [cytotoxic, single point]"
N#CCC(=O)O,Potency,[1],inactive and active: 54.5 µM
same,Potency,[2],inactive
same,Potency,[3],inactive
same,Potency,[11],inactive
same,Potency,[10],inactive
Cc1nc2sccn2c(=O)c1CCN1CCC(=C(c2ccc(F)cc2)c2ccc(F)cc2)CC1,Potency,[1],"inconclusive: 13.3 µM [inhibitor, full curve]"
same,Potency,[2],inconclusive: 29.8 µM
same,Potency,[4],active: 13.3 µM
same,Potency,[5],"inconclusive: 23.7 µM [cytotoxic, partial curve]"
same,"activity change, negative = inhibition",[8],inconclusive: -14% [at 42.5 µM]
same,Potency,[7],inactive
same,Potency,[11],"inconclusive: 16.8 µM [rising, partial curve]"
same,Potency,[10],active: 29.8 µM
same,Potency,[13],"inconclusive: 23.9 µM [rising, partial curve, poor fit]"
CCOC(=O)C1=NN(c2ccc(Cl)cc2Cl)C(C)(C(=O)OCC)C1 (configuration not stated),Potency,[1],"inconclusive: 27.3 µM [inhibitor, partial curve]"
same,Potency,[2],"inconclusive: 54.5 µM [inhibitor, partial curve]"
same,Potency,[8],"inconclusive: 27.3 µM [falling, single point]"
same,Potency,[11],active: 27.3 µM
same,Potency,[9],inactive
O=C(CCCN1CCC(O)(c2ccc(Br)cc2)CC1)c1ccc(F)cc1,Potency,[1],"inconclusive: 11.9 µM [inhibitor, full curve]"
same,"activity, negative = inhibition",[2],inconclusive: -42.9% [at 42.5 µM]
same,Potency,[4],active: 23.7 µM
same,Potency,[5],"inconclusive: 26.6 µM [cytotoxic, partial curve]"
same,Potency,[8],inconclusive: 26.6 µM
same,"activity change, negative = inhibition",[11],inconclusive: -32.3% [at 42.5 µM]
CC1=C2[C@H](/C=C(\C)C(=O)O)CC[C@@H](C)[C@H]2CC1,Potency,[1],active: 56.5 µM
same,Potency,[2],"inconclusive: 71.1 µM [rising, single point]"
same,Potency,[5],"inconclusive: 25.2 µM [cytotoxic, partial curve, poor fit]"
same,Potency,[11],"inconclusive: 28.3 µM [rising, single point]"
same,Potency,[9],inactive
same,Potency,[13],"inconclusive: 25.5 µM [rising, partial curve]"
